These results are taken from PubChem BioAssay AID1745853 (National Center for Advancing Translational Sciences (NCATS), 2022).

Common to all, as to test: Primary Screen for Target Class Profiling of Small Molecule Inhibitors of Methyltransferases
The target of assay [1] is Glycine N-methyltransferase (Homo sapiens) (UniProt Q14749). The note with it: purified enzyme, MTase-Glo SAH luminescence; measured here: GNMT inhibition; at 40 µM; stronger effect = lower value. The method in brief: (§1)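 Each enzyme was assayed with SAM and its substrate. SAH formation detected by MTase-Glo luminescence; single-point 40 uM screen[…].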
In assay [2] the target is Guanidinoacetate N-methyltransferase (Homo sapiens) (UniProt Q14353). The note with it: purified enzyme, MTase-Glo SAH luminescence; measured here: GAMT inhibition; at 40 µM; stronger effect = lower value. The method in brief: as §1
In assay [3] the target is Histamine N-methyltransferase (Homo sapiens) (UniProt P50135). The following applies: purified enzyme, MTase-Glo SAH luminescence; measured here: HNMT inhibition; at 40 µM; stronger effect = lower value. The method in brief:
as §1

The target of assay [4] is Nicotinamide N-methyltransferase (Homo sapiens) (UniProt P40261). The following applies: purified enzyme, MTase-Glo SAH luminescence; measured here: NNMT inhibition; at 40 µM; stronger effect = lower value. The method in brief:
as §1

In assay [5] the target is Phenylethanolamine N-methyltransferase (Homo sapiens) (UniProt P11086). The following applies: purified enzyme, MTase-Glo SAH luminescence; measured here: PNMT inhibition; at 40 µM; stronger effect = lower value. Summed up:
as §1

The list shows a part of the results. These are further read-outs of the screen, such as a control signal, another cell line or another target. No call is given for them. Square brackets hold non-standard residues; d marks the D form. Peptide text beside a SMILES is read from it. ξ: configuration not given here. ξLac(3-iPr) = CC(C)CC(O)C(=O)O; NMeV = CN[CH](C(=O)O)C(C)C; βAla = NCCC(=O)O
% is scaled to controls: 0 for no effect and ±100 for the full control effect.

Take `Cc1ccoc1C(=O)N1CCc2c(nc(-c3cccnc3)nc2N(C)C)C1`: the activity change, negative = inhibition in assay [1] is -16.7%; in assay [2], -6.63%; in assay [3] it was -9.65%; in assay [4], -43.8%; in assay [5], -3.86%.
As for `CC1(C(=O)NC2CCCC2)Cn2c(c(-n3cccc3)c3ccccc32)C(=O)N1Cc1cccs1` (stereo not given), the activity change, negative = inhibition in assay [1] is -1.58%; in assay [2], 1.08%; in assay [3], -3.41%; in assay [4], -12.9%; in assay [5], -3.05%.
Take `CC(C)c1noc(C2CCN(c3ncnc(Nc4ccc(S(C)(=O)=O)cc4F)c3[N+](=O)[O-])CC2)n1`: the activity change, negative = inhibition is -1.35% in assay [1]; -8.92% in assay [2]; -1.06% in assay [3]; -26% in assay [4]; -12.4% in assay [5].
Take `CC(C)CC1OC(=O)C2CCCN2C(=O)CCNC(=O)C(Cc2ccccc2)NC(=O)C(C(C)C)N(C)C(=O)C(C(C)C)N(C)C1=O` (stereo not given) (cyclo([ξLac(3-iPr)][NMeV][NMeV]F[βAla]P); configuration not given here): the activity change, negative = inhibition is 1.55% in assay [1]; -2% in assay [2]; 1.84% in assay [3]; -15.6% in assay [4]; 0.474% in assay [5].
For `CC(NC(=O)c1ccccc1N)C(=O)O` (stereo not given), the activity change, negative = inhibition in assay [1] was 2.75%; in assay [2] it was 1.81%; in assay [3], 11%; in assay [4], -11.7%; in assay [5], -6.19%.
Take `CCCn1c(=O)c2ccc(C(=O)NC3CCCC3)cc2n2c(=O)n(Cc3ccc(C)cc3)nc12`: the activity change, negative = inhibition in assay [1] was -3.27%; in assay [2], 0.433%; in assay [3] it was -3.03%; in assay [4], -11.9%; in assay [5], -8.21%.
As for `COc1ccc2[nH]c(CNc3cc(C4CC(N)C4)nc(C)n3)cc2c1` (stereo not given), the activity change, negative = inhibition in assay [1] is -23%; in assay [2] it was -8.47%; in assay [3] it was -67%; in assay [4], -58.8%; in assay [5], -34.8%.
The corresponding values for `CC(C)c1ccc(NS(=O)(=O)c2ccc3[nH]c(=O)[nH]c3c2)cc1` are -1.62%, 4.02%, -2.86%, -12.1% and -25.2%.
Turning to `CC(O)CCNS(=O)(=O)c1ccc2c(c1)CN(C(=O)c1ccon1)CC2` (stereo not given), the activity change, negative = inhibition in assay [1] is -5.18%; in assay [2] it was -8.01%; in assay [3] it was -3.94%; in assay [4], -16.3%; in assay [5], -13.1%.
Take `COc1ccc(CN2CCN(C(=O)[C@H]3CCC[C@@H](O)C3)CC2=O)cc1`: the activity change, negative = inhibition in assay [1] is -0.03%; in assay [2], 2.6%; in assay [3], 2.48%; in assay [4] it was 0.672%; in assay [5] it was -15%.
With `Cn1cnc(S(=O)(=O)NCCc2ccc(Cl)cc2)c1`, the activity change, negative = inhibition in assay [1] is -1.03%; in assay [2] it was 3.18%; in assay [3], 6.42%; in assay [4] it was 0.406%; in assay [5], 5.26%.
On to `COc1ccc(S(=O)(=O)N2CCCC(CN3CCOCC3)CC2)cc1` (stereo not given), for which the activity change, negative = inhibition in assay [1] stood at 4.12%; in assay [2], 0.169%; in assay [3], 11.1%; in assay [4], 2.7%; in assay [5], 7.69%.
As for `CCCCN1C(=O)c2cc(C(=O)Nc3cc(F)ccc3F)nn2CC1(C)C(=O)NC1CCCC1` (stereo not given), the activity change, negative = inhibition was determined as 7.46% in assay [1]; 3.77% in assay [2]; 9.07% in assay [3]; 7.64% in assay [4]; 4.9% in assay [5].
Take `Cc1c(Cl)cccc1N1C(=O)c2cc3sccc3n2CC1(C)C(=O)NC1CCCC(C)C1C` (stereo not given): the activity change, negative = inhibition was 2.48% in assay [1]; -4.81% in assay [2]; 3.32% in assay [3]; 3.25% in assay [4]; 3.08% in assay [5].
In the same order, the values of `Cc1ccc(C)c(N2C(=O)c3cc4occc4n3CC2(C)C(=O)NC2CCC(C)CC2)c1` (stereo not given) are 0.339%, 0%, 0.843%, 7.12% and 1.83%.
In the same order, the values of `C[C@@H]1O[C@@H](O[C@H]2[C@H](O)[C@@H](C(=O)O)O[C@@H](O[C@H]3CC[C@@]4(C)C(CC[C@]5(C)C4CC=C4C6CC(C)(C)CC[C@]6(C(=O)O)CC[C@]45C)C3(C)C)[C@@H]2O[C@@H]2OC[C@@H](O)[C@H](O)[C@H]2O)[C@H](O)[C@H](O)[C@H]1O` (stereo not given in full) are -4.21%, -1.74%, 2.56%, -11% and -0.239%.
`CC1CCC(NC(=O)C2(C)Cn3c(ccc3-c3ccco3)C(=O)N2CC(C)c2ccccc2)CC1` (stereo not given): the activity change, negative = inhibition in assay [1] is -1.07%; in assay [2] it was 0%; in assay [3], 3.23%; in assay [4] it was -3.92%; in assay [5], -1.59%.
Regarding `CCN(CC)CC(=O)Nc1c(C)cccc1C`, the activity change, negative = inhibition in assay [1] was 7.15%; in assay [2], 16.5%; in assay [3], 9.18%; in assay [4], 0.137%; in assay [5], 6.47%.
In the same order, the values of `CC1(C)[C@H](Cc2cc(COc3ccccc3)on2)C[C@@H]1NC1CCC1` are -5.51%, -7.57%, -23.5%, -15.4% and -9.57%.
As to `CN1C(=O)CS(=O)C12CCN(C(=O)C1(c3ccccc3)CC1)CC2` (stereo not given), the activity change, negative = inhibition in assay [1] was 0.608%; in assay [2], 0.916%; in assay [3], -1.12%; in assay [4], -3.54%; in assay [5], -3.13%.
`COCCCN1C(=O)c2cc3sccc3n2CC1(C)C(=O)NC1CCCCCC1` (stereo not given): the activity change, negative = inhibition in assay [1] was -2.14%; in assay [2], 4.5%; in assay [3], -1.42%; in assay [4] it was -1.62%; in assay [5], -0.186%.
As to `CCC(C)(Oc1ccc(C2(c3ccc(OC(C)(CC)C(=O)O)cc3)CCCCC2)cc1)C(=O)O` (stereo not given), the activity change, negative = inhibition in assay [1] is -9.36%; in assay [2], -16.2%; in assay [3] it was 1.07%; in assay [4] it was -26.1%; in assay [5], -4.86%.
For the molecule `CCOC(=O)c1cnc2ccc(Br)cc2c1Nc1ccc(C(C)=O)cc1`, the activity change, negative = inhibition in assay [1] was -14.6%; in assay [2], 4.72%; in assay [3] it was 2.08%; in assay [4], -4.89%; in assay [5], -1.85%.
For `C[C@@H](O[C@H]1OCCN(Cc2nn(P(=O)(O)O)c(=O)[nH]2)[C@H]1c1ccc(F)cc1)c1cc(C(F)(F)F)cc(C(F)(F)F)c1`, the activity change, negative = inhibition in assay [1] is 1.28%; in assay [2], 3.85%; in assay [3], 2.45%; in assay [4], -14.1%; in assay [5], -4.29%.
With `CCCn1c(=O)c2ccccc2n2c(SCC(=O)Nc3ccc(Cl)cc3)nnc12`, the activity change, negative = inhibition in assay [1] is 0.723%; in assay [2], 0.092%; in assay [3], 6.32%; in assay [4] it was -5.69%; in assay [5] it was 4.32%.
Turning to `OCC1NCC(O)C(O)C1O` (stereo not given), the activity change, negative = inhibition in assay [1] was 1.67%; in assay [2], 9.95%; in assay [3] it was 4.72%; in assay [4] it was -2.33%; in assay [5], 5.85%.
On to `Cc1cc2[nH]c(=O)[nH]c2cc1S(=O)(=O)NCc1ccccc1Cl`, for which the activity change, negative = inhibition is -1.7% in assay [1]; 4.12% in assay [2]; -6.09% in assay [3]; -9.41% in assay [4]; -9.74% in assay [5].
In the case of `COc1ccc(NC(=O)CCc2nnc3n(Cc4ccc(C)cc4)c(=O)c4ccccc4n23)cc1OC`, the activity change, negative = inhibition in assay [1] is -5.27%; in assay [2] it was 2.91%; in assay [3], -3.93%; in assay [4], 6.61%; in assay [5], -6.3%.
